In PMC10726135:
The list shows a part of the results. At the low end of the ranking, values are background and their order means little. The protein was read in a cell extract, so binding may be indirect.

Each sequence was assayed against T1, HNF4alpha8 (COS-7 nuclear extract) (UniProt P41235-5) (assay: protein-binding microarray). Details: COS-7 nuclear extract on double-stranded Agilent 4x180k PBM; binding buffer, salt, pH and temperature not given; high values mean tight binding; double strand, one strand shown; sequences stand for … in …GCCTAGGGAGATTAGAGTATCGGTCGA.
T1 sequence: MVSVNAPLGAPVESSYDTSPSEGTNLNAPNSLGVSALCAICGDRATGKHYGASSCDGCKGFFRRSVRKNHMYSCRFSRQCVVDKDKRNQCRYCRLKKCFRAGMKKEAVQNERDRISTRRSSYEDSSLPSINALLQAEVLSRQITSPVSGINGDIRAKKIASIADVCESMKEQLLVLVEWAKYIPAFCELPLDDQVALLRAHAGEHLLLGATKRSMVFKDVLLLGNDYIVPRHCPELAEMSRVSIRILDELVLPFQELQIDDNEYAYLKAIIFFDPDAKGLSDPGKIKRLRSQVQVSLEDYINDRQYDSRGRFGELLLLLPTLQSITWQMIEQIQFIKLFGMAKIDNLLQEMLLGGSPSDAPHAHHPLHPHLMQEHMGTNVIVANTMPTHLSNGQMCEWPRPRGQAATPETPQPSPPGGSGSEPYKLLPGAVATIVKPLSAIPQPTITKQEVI
GGCGACGGACGCGCCGCGCCGGGGAAGCTG gave a binding signal (log2 normalized intensity) of -1.17. GGAGGCATTCCTGCAATCAGAGCTGGATGT was tested, and the binding signal (log2 normalized intensity) was -1.38. Sequence AAAAGCTTATCTGCACAATGAAACTTGGTC has a binding signal (log2 normalized intensity) of 1.08. In the case of TGGTGAAAGGAGGAATCTGTGAAGGTCAGG, the binding signal (log2 normalized intensity) is reported as 0.84. Sequence TTGTTTGTTTTGAGGGTTAAAGGAGATAAT has a binding signal (log2 normalized intensity) of 1.28. With CAGAAAGGCAAGAAGTATGACAACAAAGCA the binding signal (log2 normalized intensity) was -1.13. TTTGAAACATAACAGCAACAACACAGATCA showed a binding signal (log2 normalized intensity) of -1.4. In the case of TCTTGGCTTCAAAGGTCACTGTCCTAATTT, the binding signal (log2 normalized intensity) is reported as 4.5. For AAAAAACACTCTCAATCTTTGCCCTCTTGG, the binding signal (log2 normalized intensity) was 3.63. With GTATCCCTTGCTCAACTCCCTCTGAAGGGA the binding signal (log2 normalized intensity) was -1.36. Sequence AAAAAGCCTGAGCATCTTATCAGCAGGAGA has a binding signal (log2 normalized intensity) of -1.21. With AGCCTCACCAACAGGATTGTGAAACGTTTG the binding signal (log2 normalized intensity) was -0.103. With TGGACTTTGGAATTAAGGAGATTTGGCTTT the binding signal (log2 normalized intensity) was 5.99. AGGCAGTGTCACAGAAATCATGTAGCCAGA showed a binding signal (log2 normalized intensity) of -1.35. AAGTGTTTAACTCTTTATCTTTCTCCTACA gave a binding signal (log2 normalized intensity) of -1.24. TATCAGCAGGAGGAGGAGCCAGTGAAGACT gave a binding signal (log2 normalized intensity) of -1.17. With CTGTCTGCCATGGGCCTGGCTGAGCCTGGG the binding signal (log2 normalized intensity) was -1.3. For GAAGGAGCACCAATGACCTTTGACCCTTCT, the binding signal (log2 normalized intensity) was 11.2. Work on AACCTAGGAAATCAAAAACCATTTGACAAT yielded a binding signal (log2 normalized intensity) of -1.12. In the case of AGAAGAAAAGAGTTGCTCAAACCAACATTA, the binding signal (log2 normalized intensity) is reported as -1.31. TAGCCTGAAAATGTTTGCCGACCTCCTGAC gave a binding signal (log2 normalized intensity) of 0.714. AAGAAAAAACAGGTGTTCTTTCCCTCCAGC was tested, and the binding signal (log2 normalized intensity) was -1.32. For TGGACAGGGGTGTGTTGACCGATAACCCTC, the binding signal (log2 normalized intensity) was 2.75. CTGGCAGAGGAAAAAGTCCCTGGTCCCATA was tested, and the binding signal (log2 normalized intensity) was -0.772. TCCAGAACCAAGATTTACATCCTATCCTGG was tested, and the binding signal (log2 normalized intensity) was -1.28. In the case of ACGTTGTACCCCACAGGTATTCTTTCATCC, the binding signal (log2 normalized intensity) is reported as 1.46. In the case of AACAGCACTTGTGCAGTTTTTCTGCCGAAG, the binding signal (log2 normalized intensity) is reported as -1.37. Work on TGTGTACCTCATCTTCTTTCCTGGTGCCTC yielded a binding signal (log2 normalized intensity) of 1.31. Work on TCATTCCCCTAGTATATTGGCTTGGCTGTG yielded a binding signal (log2 normalized intensity) of 2.39. AGCCTGCAGCACCTTGATGCTGGACTTCAG was tested, and the binding signal (log2 normalized intensity) was 3.36. Work on CGCCTGACCTGGCCCCTGAGGGTGCTGAGC yielded a binding signal (log2 normalized intensity) of -1.22. In the case of GTTCTCTCCGGGTAAAGGTGAAGGCTGACC, the binding signal (log2 normalized intensity) is reported as 2. For ACAGTCTTGGGCACAAAGTACAAAAGAGGC, the binding signal (log2 normalized intensity) was 2.22. TTCAAGGGCCACTCAGTTGAAGTTCCAGAA gave a binding signal (log2 normalized intensity) of -1.28. In the case of AGTTGATTGCACCCTTCCCTAAGATTTATC, the binding signal (log2 normalized intensity) is reported as 1.67. AGGCCATCCCAGTTACTCAGCGAATACCAA gave a binding signal (log2 normalized intensity) of -1.3. Work on GATTACGTGTTCCCAGGATGAGGCCGTTCT yielded a binding signal (log2 normalized intensity) of 1.32. With AGGGGGATTACCTAAACAGCAACTGTAGTG the binding signal (log2 normalized intensity) was -1.28. AAAGACCTTGCTGATAAAACAGCATGCGGT gave a binding signal (log2 normalized intensity) of -1.15. Sequence GAAAACATCATTCCGTGACTGAGCTCGCGC has a binding signal (log2 normalized intensity) of -1.24. With CCACCCCTCCTCCTGGGGGCTTTTGTTTAG the binding signal (log2 normalized intensity) was 1.23. Work on ATGTCAGGAGCCCCACTGTAGTAAGGGAGT yielded a binding signal (log2 normalized intensity) of -0.892. TGCAACAGTGACCCAAATATGGTCCCTGAC showed a binding signal (log2 normalized intensity) of -0.137. TGGGGGCCACGCACACCTGGATCTTCCAGG gave a binding signal (log2 normalized intensity) of -1.3. TCACATACTGTGGACATAAAAAGATAATGC gave a binding signal (log2 normalized intensity) of -0.763. For AAGTTCAGTCGAATTTGGTTACTCGCCTTA, the binding signal (log2 normalized intensity) was -1.09. Sequence CCTCATGCCTTATCTACATAGTCCCTGCAC has a binding signal (log2 normalized intensity) of -0.173. With AAAGCCTAAAATATTCACTATCTGATCCTT the binding signal (log2 normalized intensity) was 0.685. Work on ATAAGCTCTGCGCCCTTGGAATATCCTGCC yielded a binding signal (log2 normalized intensity) of -1.3. CCGCTTGGCCCTCTTCCAAGTGTTCTTTAC was tested, and the binding signal (log2 normalized intensity) was 1.72. TAAACCCCTGGAGCACAGAAGGAGGGCGGG gave a binding signal (log2 normalized intensity) of -1.27. With TAGAAGTACTAGATTTGGAACTCAGAGTTT the binding signal (log2 normalized intensity) was 0.701. TGCATATCAGCATGGCTGCAGAGAACAGCA was tested, and the binding signal (log2 normalized intensity) was -1.32. In the case of TGGGGAGGTTTGGCTGAGAGGGATAAAAGG, the binding signal (log2 normalized intensity) is reported as -1.21. CAGTCAATTACATGGCAGATGTCTGTGTTC showed a binding signal (log2 normalized intensity) of 1.84. In the case of TCCCCGGGCGGGATGGGGTCACGAGACGGT, the binding signal (log2 normalized intensity) is reported as 2.27. Sequence CTTTCATACGTTTAACAGTTCCTCCTGGAA has a binding signal (log2 normalized intensity) of 0.801. TGTCTTTGGGTGGAGGGGAGGTTATCTTGG showed a binding signal (log2 normalized intensity) of 1.02. AGTGAAGACTGAAAAGAGATAACTAGATGA was tested, and the binding signal (log2 normalized intensity) was -1.2. Work on CATTCCAGAAAGACAGCTGCATTTGTCCGG yielded a binding signal (log2 normalized intensity) of 0.215. With GGTCCAGCCTACCCACCCACACCTCCCCTT the binding signal (log2 normalized intensity) was 4.48. Sequence CCTGTTTGACCTTCGAACCCTTGCCATTTA has a binding signal (log2 normalized intensity) of 7.81. With GACCTAGATGGAATGTTGTGTCTTCCAGTT the binding signal (log2 normalized intensity) was 1.45. With TGAATGCCTAGGTGACAAGGAAAACTACAC the binding signal (log2 normalized intensity) was -1.39. Work on GTGAGTGGACTTTGGTCCTGGTCAGACTTG yielded a binding signal (log2 normalized intensity) of 6.78. With TTCTGACCTTTAAGCACCCAGAGCCCCACC the binding signal (log2 normalized intensity) was 5.07. For AAGAATGAAAGCCAAGGCAGATATGAAAGA, the binding signal (log2 normalized intensity) was -1.29. TCTCTCTCCTCTCCAGCCCATCCTAAGCCC gave a binding signal (log2 normalized intensity) of 2.28. TTTTTTCAGGTGTTGCTCTCTTGCCATTCG was tested, and the binding signal (log2 normalized intensity) was 0.21. Sequence AGCCCTAACCAGGGGTGGGGACCTTTGGGC has a binding signal (log2 normalized intensity) of 3.85. Sequence CCCACAGTGCCCTCTATTGGCTGTTTAGTA has a binding signal (log2 normalized intensity) of 1.56. Sequence TTTAATTCTGAGTTCCAATAGCAAAACCTG has a binding signal (log2 normalized intensity) of -1.32. For CTGGACTTTGGCTGCAAAATTTGAACAAAA, the binding signal (log2 normalized intensity) was 2.14. With TCATCACTTAGGATATTCCAAGGGGTTAGA the binding signal (log2 normalized intensity) was 0.889. CATCTTTGAAGAGCACAGGGTCAGCAGATC was tested, and the binding signal (log2 normalized intensity) was 1.59. In the case of CCAAGCCCCAAAAACTTGGACTCTATAGCC, the binding signal (log2 normalized intensity) is reported as 4.35. CCAAAGGTCATCTGTCACTCTAGATAAAGA gave a binding signal (log2 normalized intensity) of 1.84. CCTTGCCCCACCCCCCACCCCAGAAGTATG was tested, and the binding signal (log2 normalized intensity) was 6.5. In the case of CCAATTATTGCGAGTTTAGGAGGGTTCCTG, the binding signal (log2 normalized intensity) is reported as -0.0269. Sequence TGCATTGTGGTATTCATTCAACTTTGACTT has a binding signal (log2 normalized intensity) of 2.53. AATTCATGACTCTCTTATAGGTGTTTATAA was tested, and the binding signal (log2 normalized intensity) was 0.379. For CTAGGCAGTCCACAGACAAAGGCCCGCTGC, the binding signal (log2 normalized intensity) was -1.27. CCGCGCCCAGCGGTTCCGGGCGGCAGCACA was tested, and the binding signal (log2 normalized intensity) was -1.34. Sequence GATGGCCCTCTCCAAGGCGGTGTGGAGGTC has a binding signal (log2 normalized intensity) of 1.91. Work on TCCTAGACCTTTGACCTTTATACCTGTACG yielded a binding signal (log2 normalized intensity) of 6.76. In the case of CATCAGATCTGGGTGTGCCATTCTTCCAGT, the binding signal (log2 normalized intensity) is reported as 0.00778. CCACGGCAACCTTCCTGGAAACCTTCTCTG gave a binding signal (log2 normalized intensity) of -1.3. For GATGAGGCACCAACACTTCCCAATCAGAAA, the binding signal (log2 normalized intensity) was -1.31. CCAACAGGTGAAGACATGCTGGTGTGTGAT showed a binding signal (log2 normalized intensity) of 0.875. CCATAGAGTCCACCACTGACCTTAGACCCT was tested, and the binding signal (log2 normalized intensity) was 6.66. Sequence TGTCCACCAAGGAGGTGCTGACAGGCCCTC has a binding signal (log2 normalized intensity) of -1.42. GCCTCTTTATCTCCTCCCCTTGAGACTTTA gave a binding signal (log2 normalized intensity) of 2.97. Work on ACAGGGCAAGGAACGGAATGTGTGATAAGG yielded a binding signal (log2 normalized intensity) of -1.37.
